Measured values taken from the supplement of paper PMC4166925.
± gives the standard deviation of the averaged measurements. The full ranking holds about 33,000 sequences; the median of “E-score (dimensionless, -0.5 to 0.5)” is about -0.049, and the highest 2% start at about 0.37. The list shows a part of the results.

What follows are sequences tested on T1, PmTbr T-box DNA-binding domain (GST fusion) (assay: PBM E-score of 8-mer (E-score (dimensionless, -0.5 to 0.5)); Tbr is Tbrain of the sea star Patiria miniata (Pm) or the sea urchin Strongylocentrotus purpuratus (Sp); higher = stronger binding preference; most listed sequences are background and not binding sites). Conditions: the construct has about 5 more residues each side.
T1 sequence: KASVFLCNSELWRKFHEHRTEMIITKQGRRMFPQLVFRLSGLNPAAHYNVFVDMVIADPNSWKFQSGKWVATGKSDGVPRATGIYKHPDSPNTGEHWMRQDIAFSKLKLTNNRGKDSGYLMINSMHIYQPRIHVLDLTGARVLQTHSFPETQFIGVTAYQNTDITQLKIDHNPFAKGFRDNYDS
Outline: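 Using the Universal PBM Analysis Suite, every ungapped 8-mer received an enrichment E-score averaged over duplicate arrays. Probe intensities came from double-stranded Universal Agilent oligonucleotide arrays incubated with 200 nM GST-fused Tbr T-box DNA-binding domain in PBS (pH 7.5). That protein was expressed in BL21 E. coli at 20 °C and purified by glutathione affinity chromatography.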

| Sequence | PBM E-score of 8-mer |
| --- | --- |
| ACATGAGA | 0.00905 ± 0.019 |
| ACGGGTTG | 0.00984 ± 0.068 |
| GGTAAGCA | -0.0891 ± 0.041 |
| ATGGGCGC | 0.0518 ± 0.0048 |
| TATCAGGA | -0.121 ± 0.0063 |
| ACAGGTAC | 0.101 ± 0.064 |
| CAAACATC | 0.131 ± 0.015 |
| AACGCGCC | 0.187 ± 0.0068 |
| AAATAGTT | -0.0971 ± 0.021 |
| CCCATTGC | -0.0492 ± 0.012 |
| GCGGACGC | 0.0267 ± 0.032 |
| CTCGACTC | 0.02 ± 0.016 |
| ACCTACAA | -0.0275 ± 0.012 |
| ATGGTAAG | -0.0662 ± 0.042 |
| GAAATTCC | -0.208 ± 0.052 |
| CACCCTAA | 0.225 ± 0.021 |
| GCGCTCAA | -0.00447 ± 0.036 |
| CATTCTGA | -0.223 ± 0.048 |
| GGATGGAC | -0.191 ± 0.032 |
| ACAGTTCA | 0.136 ± 0.046 |
| CGCCTCCA | 0.156 ± 0.028 |
| ATCACTGC | -0.0346 ± 0.0018 |
| GTCTGTAA | -0.076 ± 0.08 |
| GAACGATC | -0.116 ± 0.037 |
| TCACTGGA | -0.0222 ± 0.052 |

| Sequence | PBM E-score of 8-mer |
| --- | --- |
| CCTCCCGA | -0.00356 ± 0.09 |
| CTACCCGC | -0.00509 ± 0.015 |
| AGTTAAAC | -0.196 ± 0.034 |
| AACCATGC | -0.035 ± 0.047 |
| ACGGCCAG | 0.0877 ± 0.014 |
| AAAGTCAA | -0.0861 ± 0.02 |
| GCTCTGAC | -0.205 ± 0.092 |
| ACCACATG | 0.0223 ± 0.078 |
| CCGGAACA | -0.0637 ± 0.001 |
| GGCCCAAC | -0.179 ± 0.037 |
| TAAATGAA | -0.251 ± 0.033 |
| ACTTAGGC | -0.0594 ± 0.1 |
| ACCCCGTC | 0.0195 ± 0.049 |
| CTGCCAAC | 0.0539 ± 0.0096 |
| CACTCTAG | 0.223 ± 0.0029 |
| CCCGGAGG | -0.219 ± 0.053 |
| GATCACAC | 0.451 ± 0.014 |
| AGGGTTTC | -0.0564 ± 0.037 |
| CGGTTCCA | -0.0723 ± 0.017 |
| GCTGTCAC | 0.3624 ± 0.0017 |
| AGAACGGG | 0.0952 ± 0.0063 |
| CTGAAAAA | -0.055 ± 0.01 |
| CCTTATTC | -0.2061 ± 0.00076 |
| ACAACGTA | -0.0174 ± 0.061 |
| ACACCGCC | 0.223 ± 0.027 |

| Sequence | PBM E-score of 8-mer |
| --- | --- |
| CGGCCCCG | -0.277 ± 0.033 |
| AGGGTTAC | -0.0859 ± 0.069 |
| AAATCAAT | 0.0923 ± 0.026 |
| GCAGGCAA | -0.216 ± 0.011 |
| CTATCTAA | -0.0551 ± 0.063 |
| CAACCGCG | 0.1 ± 0.0095 |
| AACAAGAT | -0.0647 ± 0.12 |
| CGATGCAC | -0.12 ± 0.041 |
| AGTCCAGG | -0.336 ± 0.027 |
| ATAGGAGA | -0.25 ± 0.028 |
| GGCCGTAA | -0.278 ± 0.011 |
| AGCTAGAT | -0.239 ± 0.025 |
| CCCCTTGA | -0.08 ± 0.0082 |
| TAGGTTCA | -0.023 ± 0.1 |
| ATCCACAC | 0.339 ± 0.011 |
| TACTTCCA | -0.16 ± 0.084 |
| AAGTGTCG | 0.44424 ± 0.0003 |
| CGTCGGTC | -0.215 ± 0.041 |
| ACTAATCG | -0.0843 ± 0.064 |
| CGCGCTAG | 0.159 ± 0.019 |
| GAGCACGA | -0.0758 ± 0.042 |
| GATGATCA | 0.0368 ± 0.0032 |
| GCCATACA | 0.0649 ± 0.0091 |
| ACTAGGGG | 0.00307 ± 0.069 |
| TGCCTACA | -0.0287 ± 0.062 |

| Sequence | PBM E-score of 8-mer |
| --- | --- |
| GTGGTTAA | 0.0848 ± 0.1 |
| GCGGGGAC | -0.227 ± 0.05 |
| CGTCGTGC | 0.0521 ± 0.018 |
| AGGTATAA | 0.00827 ± 0.059 |
| AATGTAAA | 0.00302 ± 0.019 |
| GTTAGCTA | -0.0565 ± 0.041 |
| GCAGACAC | 0.168 ± 0.016 |
| ATCAAATG | -0.0836 ± 0.039 |
| CCGGAATA | -0.0611 ± 0.069 |
| GTTAAGCA | 0.0703 ± 0.02 |
| AGAATGCA | -0.0829 ± 0.0047 |
| CGGCATGC | -0.0704 ± 0.06 |
| ACCTATCA | 0.222 ± 0.0038 |
| CACGGCGG | 0.00086 ± 0.011 |
| CTATACGA | 0.143 ± 0.018 |
| ACCTAGTA | -0.0121 ± 0.025 |
| AAGATAAG | -0.257 ± 0.023 |
| TTCTGCAA | -0.118 ± 0.03 |
| ATATGCTC | -0.0862 ± 0.0065 |
| ATACGCAT | -0.114 ± 0.039 |
| CCTGGTCA | 0.0112 ± 0.094 |
| AGATCGTG | 0.112 ± 0.016 |
| AAGGCCCA | -0.0396 ± 0.001 |
| CACGCATG | 0.133 ± 0.03 |
| AATCATCT | 0.114 ± 0.024 |

| Sequence | PBM E-score of 8-mer |
| --- | --- |
| CATACCGA | -0.186 ± 0.051 |
| CCCCCAGC | -0.176 ± 0.0044 |
| AACCGAAA | -0.197 ± 0.051 |
| AAGACTTA | -0.124 ± 0.081 |
| AGTCTGCC | -0.227 ± 0.025 |
| AGACCTGC | 0.0219 ± 0.066 |
| GGTCCCAA | -0.152 ± 0.03 |
| CGACTGGA | -0.206 ± 0.035 |
| AAGCAGGA | -0.165 ± 0.022 |
| CCATATGG | -0.17 ± 0.091 |
| TCTGCCAA | -0.0526 ± 0.028 |
| GGCCTTAA | -0.123 ± 0.05 |
| AGACGATA | -0.0177 ± 0.0056 |
| AATGCGGA | -0.0613 ± 0.037 |
| GGGCTGTA | -0.178 ± 0.004 |
| TACCGGTA | -0.0985 ± 0.1 |
| ATGTGACC | 0.112 ± 0.052 |
| ATGAGAGA | -0.176 ± 0.079 |
| CTGAGTCA | -0.182 ± 0.06 |
| AACCAAGT | 0.0656 ± 0.012 |
| ATACGGCA | -0.129 ± 0.014 |
| ACGTGTAT | -0.0681 ± 0.11 |
| AACACTAG | 0.275 ± 0.056 |
| CCGCGCTA | 0.111 ± 0.046 |
| CTAGATAA | -0.0467 ± 0.005 |

| Sequence | PBM E-score of 8-mer |
| --- | --- |
| ATCCTCTG | -0.0609 ± 0.083 |
| AATTGCAT | -0.189 ± 0.074 |
| GCGATACA | 0.0052 ± 0.0075 |
| ATGGCCCC | -0.0631 ± 0.0096 |
| CGAAGTAA | -0.056 ± 0.0046 |
| ACATCTGA | 0.141 ± 0.023 |
| ATATCAAT | 0.0417 ± 0.036 |
| CAGAATTA | -0.104 ± 0.044 |
| CAGTGGCA | 0.174 ± 0.041 |
| AGGGATGA | -0.219 ± 0.012 |
| CAGCAAGG | 0.0737 ± 0.052 |
| GAGGAAGA | -0.0968 ± 0.011 |
| ACAAATGT | 0.105 ± 0.14 |
| GTTCCATA | -0.305 ± 0.031 |
| AGCTGCAT | -0.166 ± 0.006 |
| CACCTACG | 0.412 ± 0.0089 |
| ATACTAGA | -0.116 ± 0.005 |
| TTCCAAAA | -0.261 ± 0.068 |
| CGCGGGTA | 0.105 ± 0.034 |
| AACGACTG | 0.117 ± 0.053 |
| AAATTTCC | -0.163 ± 0.01 |
| AGTAGGAT | -0.0279 ± 0.011 |
| ATGAGTTA | -0.173 ± 0.087 |
| GACTTCTC | 0.148 ± 0.065 |
| CATTGTCA | 0.301 ± 0.014 |

| Sequence | PBM E-score of 8-mer |
| --- | --- |
| CGAAAGCA | -0.135 ± 0.054 |
| AGGTAGAC | -0.137 ± 0.023 |
| ATAGGGTC | -0.279 ± 0.034 |
| CAACGTGG | -0.0277 ± 0.11 |
| CCAACCCC | -0.101 ± 0.018 |
| ACCATTAC | 0.0428 ± 0.035 |
| TGCACCCA | -0.00473 ± 0.017 |
| TATATCGA | -0.0386 ± 0.027 |
| GAGCGGAC | -0.305 ± 0.019 |
| ATTCACTA | 0.124 ± 0.028 |
| GTGTACCA | -0.0731 ± 0.0088 |
| CCAGGACC | -0.142 ± 0.037 |
| CTCGCGTA | 0.15 ± 0.05 |
| GATGTGGC | 0.117 ± 0.0081 |
| GCGTCCCA | 0.0282 ± 0.0034 |
| AAAGCCCT | -0.193 ± 0.0078 |
| TAGTATAA | 0.0737 ± 0.035 |
| CGTAAGAC | -0.27 ± 0.014 |
| ATCTGGGG | -0.107 ± 0.061 |
| TGAAACAA | 0.122 ± 0.049 |
| TACGCAGA | -0.095 ± 0.084 |
| AACCTCCG | 0.0421 ± 0.042 |
